Reference: the antibiotic and cytotoxicity screens of Wong et al. (2023)
Some of the results follow.

system: HSkMC (human skeletal muscle cells); experiment: cytotoxicity call (relative viability < 0.9); details: 10 µM

Row | SMILES | cytotoxicity call
1 | C[C@@H]1CCCCO[C@H](CN(C)S(=O)(=O)c2cn(C)cn2)[C@H](C)CN([C@@H](C)CO)C(=O)c2cc(NS(=O)(=O)c3ccccc3)ccc2O1 | inactive
2 | C[C@H]1CCCCO[C@H](CN(C)C(=O)Nc2ccccc2)[C@@H](C)CN([C@@H](C)CO)C(=O)c2cc(NC(=O)Nc3cccc4ccccc34)ccc2O1 | inactive
3 | COc1ccc(NC(=O)N2C[C@@H](O)COC[C@H]3O[C@@H](CC(=O)NC4Cc5ccccc5C4)CC[C@@H]32)cc1 | inactive
4 | COc1ccccc1CNC(=O)C[C@H]1C[C@@H]2c3cc(NC(=O)c4cccnc4)ccc3O[C@@H]2[C@H](CO)O1 | inactive
5 | C[C@@H]1CCCCO[C@@H](CN(C)C(=O)Nc2ccccc2)[C@H](C)CN([C@@H](C)CO)C(=O)c2cc(NC(=O)CCC(F)(F)F)ccc2O1 | inactive
6 | Cc1noc(C)c1NC(=O)Nc1ccc2c(c1)C(=O)N([C@H](C)CO)C[C@H](C)[C@@H](CN(C)C(=O)Nc1ccccc1)OCCCC[C@H](C)O2 | inactive
7 | C[C@@H]1CN([C@@H](C)CO)C(=O)c2cc(NS(=O)(=O)c3cn(C)cn3)ccc2O[C@@H](C)CCCCO[C@H]1CN(C)C(=O)CCCN(C)C | inactive
8 | CO[C@@H]1CN(C)C(=O)c2cc(NC(=O)c3ccc(Oc4ccccc4)cc3)ccc2OC[C@@H](C)N(C(C)=O)C[C@H]1C | inactive
9 | C[C@@H]1CN([C@@H](C)CO)C(=O)Cc2cc(NS(=O)(=O)c3ccccc3)ccc2O[C@@H]1CN(C)S(=O)(=O)c1ccc(F)cc1 | inactive
10 | CN(C)CC(=O)N1[C@@H](CO)[C@H](c2ccc(C3=CCCC3)cc2)C12CN(S(=O)(=O)Cc1ccccc1)C2 | inactive
